# Results reported in the supplement of paper PMC4466236.
# Whole data set: some 33,000 sequences, median “E-score (dimensionless, -0.5 to 0.5)” near -0.058, cut for the highest 2% near 0.35. This is one part of the list.
# System: MvaT
# Test: PBM 8-mer E-score (mean of HK and ME arrays) (E-score (dimensionless, -0.5 to 0.5)); higher = stronger relative binding preference; most listed sequences are background and not binding sites
# Method in brief: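 Full-length P. aeruginosa MvaT carrying an N-terminal glutathione S-transferase tag was tested by protein binding microarray following a previously described protocol. Two universal double-stranded 60-mer arrays, ME and HK, were used, each with a constant 25-mer primer region and a variable 35-mer region covering all 8-mers. The rank-based E-score is the mean of the two arrays, parsed with a custom script. Its range runs from -0.5 to 0.5 for each 8-mer.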
row,Sequence,PBM 8-mer E-score
1,CCGAACCG,-0.193
2,AGCGACAT,-0.0824
3,ATTATACA,0.388
4,CAAGGAGA,-0.135
5,AAAACGAT,0.0424
6,CTTGCGGA,-0.0364
7,ATGTGTGC,-0.0274
8,CATAACGA,0.141
9,TAGTGCAA,0.114
10,CGCAATAA,0.241
11,GGACCGAA,-0.195
12,AAGGGAAC,-0.113
13,ACGGCCGT,-0.184
14,ATCTAAGA,-0.0492
15,ACGTAACA,0.201
16,ATTACAGG,0.0088
17,ATGACAGA,-0.126
18,GTTAGCCA,-0.043
19,AACTACGT,0.0749
20,ACATATAA,0.446
21,CGATTGGA,-0.184
22,GTCGTCAA,-0.0669
23,GAATATAC,0.298
24,AATCTCGT,-0.019

row,Sequence,PBM 8-mer E-score
1,CCTCACAA,-0.0216
2,TAAAAATA,0.3
3,ATGAAGTA,0.0322
4,AGTTCAGC,0.047
5,AACAACAG,0.0444
6,CAAGGACA,-0.0273
7,ATATCTTG,0.292
8,ACTATAAA,0.316
9,GGGCACTA,-0.278
10,AATCGACG,-0.0214
11,CGTATTGA,0.0844
12,AAGAATGC,0.0322
13,ACCCTCCG,-0.234
14,ACCGGACG,-0.224
15,CTGGTAGC,-0.329
16,CATAGTCG,-0.138
17,CGTCAAAA,0.119
18,ATATGGAA,0.278
19,GTGGTAAC,-0.165
20,AGCGCTTG,-0.127
21,CGCGCCCA,-0.221
22,TAACTTAA,0.406
23,TATCAACA,0.191
24,ACGGCTAA,-0.0612

row,Sequence,PBM 8-mer E-score
1,GCAGTCGA,-0.223
2,GGCGGTGA,-0.0826
3,ACCTTTAC,0.074
4,CACGAGTG,-0.137
5,GAAATAAC,0.3
6,AACAGTGC,0.0807
7,GAGACAAA,-0.0765
8,CTTAATAA,0.385
9,ACAGAAAG,-0.0384
10,ATATGCAT,0.257
11,CAGGTCCC,-0.296
12,AGCACATG,-0.0899
13,GTATAGTA,0.233
14,CTCAAAGA,0.0505
15,AGAGTGTC,-0.116
16,ATACCTAC,0.122
17,CCAGCTCC,-0.306
18,GAATTGCA,0.0683
19,AGACTGCG,-0.139
20,GATGACCC,-0.158
21,ACTCGAAC,0.0239
22,AAGTTTAC,0.157
23,TATTCTGA,0.132
24,CTATGGAG,-0.194

row,Sequence,PBM 8-mer E-score
1,ACACCGGG,0.0263
2,AGACTGGG,-0.149
3,GCTTGAGA,-0.222
4,AGTACGGC,-0.141
5,ATAGTTTA,0.35
6,CTAGACGA,-0.169
7,CAAGGCGC,-0.221
8,AAAATGCG,0.119
9,GTCAATGA,0.0467
10,CTGAGATA,0.0581
11,ACTGAGCT,0.00939
12,AAAGACTT,0.158
13,GGGTGCAA,-0.0874
14,TAAAGATA,0.307
15,GGGAAAGA,-0.088
16,ACGCTAGA,-0.141
17,ACCGAGGA,-0.326
18,TAGTGCCA,0.0464
19,CTTCACTA,-0.0225
20,ACACCGGC,-0.133
21,CGACTGTA,-0.0808
22,AAGCAGTC,-0.037
